Among all 270,000 compounds or so, about 5,800 (2.1%) were called active. The inconclusive results got no clear call from the source; some entries with a clear call stand among them for comparison. The call rests on the fitted dose curve; in most records, active means well fitted inhibition curve with a large enough effect; inconclusive means small, poorly fitted or top-dose-only effect; inactive means flat fitted curve, though single readings scatter. Where the call is inconclusive, the potency comes from a doubtful curve fit.
molecular target: Microtubule-associated protein tau (Homo sapiens) (UniProt P10636); assay: qHTS for Inhibitors of Tau Fibril Formation, Thioflavin T Binding; details: recombinant tau K18 P301L (four-repeat tau fragment), heparin-induced fibrillization, ThT fluorescence; series mostly up to 57.4 µM; further: nearly all actives have a fitted effect of over 55% in size
Procedure, shortened: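 Heparin-induced (20 uM) aggregation of recombinant human K18 P301L tau, 15 uM unlabeled with 0.24 uM labeled, pH 7 acetate buffer, 6 hr at 37 C with compound. Fibrils quantified by 30 uM ThT fluorescence after 1 hr ambient incubation.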
On the % scale 0 is the no-effect control and ±100 the full control effect; potency means the concentration at half of the fitted maximal effect; tags describe the fitted curve by direction and shape.

Chain of UniProt P10636 (P10636 whole entry, looked up, the tested form may be a part): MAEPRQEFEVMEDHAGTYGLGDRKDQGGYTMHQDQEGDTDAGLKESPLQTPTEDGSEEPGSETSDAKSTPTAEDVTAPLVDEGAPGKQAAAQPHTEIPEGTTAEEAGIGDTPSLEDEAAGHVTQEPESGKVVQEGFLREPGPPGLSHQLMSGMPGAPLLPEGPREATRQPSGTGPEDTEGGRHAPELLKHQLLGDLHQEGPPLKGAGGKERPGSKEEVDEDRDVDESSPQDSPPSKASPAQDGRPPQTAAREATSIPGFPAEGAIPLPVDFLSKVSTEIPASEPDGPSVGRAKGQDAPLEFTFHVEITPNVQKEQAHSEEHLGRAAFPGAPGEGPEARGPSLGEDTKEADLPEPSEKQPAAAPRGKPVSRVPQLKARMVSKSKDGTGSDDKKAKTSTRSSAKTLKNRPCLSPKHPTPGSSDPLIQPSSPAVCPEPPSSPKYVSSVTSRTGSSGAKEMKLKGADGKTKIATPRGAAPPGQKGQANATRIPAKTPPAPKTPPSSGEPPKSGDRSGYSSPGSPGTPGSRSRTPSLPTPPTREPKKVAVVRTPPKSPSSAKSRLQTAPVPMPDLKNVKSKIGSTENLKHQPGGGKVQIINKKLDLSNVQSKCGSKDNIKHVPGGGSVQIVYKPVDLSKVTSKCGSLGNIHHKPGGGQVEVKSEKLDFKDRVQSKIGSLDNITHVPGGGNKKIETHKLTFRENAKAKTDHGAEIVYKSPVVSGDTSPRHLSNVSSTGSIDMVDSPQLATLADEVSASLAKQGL

Row | SMILES | Potency | activity, negative = inhibition
1 | C/C(Nc1ccc2oc(=O)ccc2c1)=C1/C(=O)CC2[C@@H]1C2(C)C (stereo not given in full) | inconclusive: 31.6 µM [inhibitor, partial curve] | 
2 | CCC(c1nnnn1CCOC)N(Cc1cc2c(C)cc(C)cc2[nH]c1=O)CC1CCCO1 (stereo not given) | inactive | 
3 | COC(=O)c1ccc(N=Nc2ccccc2)cc1 | active: 14.1 µM | 
4 | COc1ccc(N2CCN(C(CNS(=O)(=O)c3c(C)cc(C)cc3C)c3ccco3)CC2)cc1 (stereo not given) | inconclusive: 14.1 µM [inhibitor, partial curve] | 
5 | CN1Cc2c(N3CCOCC3)nc3sc(C(=O)c4ccc(Br)cc4)c(N)c3c2CC1(C)C | inconclusive: 39.8 µM [inhibitor, single point] | 
6 | O=C(Cn1c(=O)n(Cc2ccc(F)cc2)c(=O)c2sc3ccccc3c21)NCc1ccccc1Cl | inactive | 
7 | COc1ccc(/C=N/n2c(-c3cc(C)[nH]n3)n[nH]c2=S)cc1OC | inconclusive: 39.8 µM [inhibitor, single point] | 
8 | COc1cc(C(=O)Nc2ccc(OCc3cc(=O)n4ccc(C)cc4n3)cc2)cc(OC)c1OC | inconclusive: 14.1 µM [inhibitor, partial curve] | 
9 | COc1cc(/C=N/Nc2nc3ccccc3[nH]c2=O)ccc1O | inconclusive: 8.91 µM [inhibitor, partial curve] | 
10 | O=C(Oc1ccc2ccccc2c1)c1ccccc1 | inconclusive: 14.1 µM [inhibitor, partial curve] | 
11 | CCOC(=O)C1=C(Cc2ccc(Cl)cc2)C(=O)c2ccccc2C1=O | active: 14.1 µM | 
12 | CCOc1ccc(C2=C(C=C(C#N)C#N)C(c3ccccc3)c3ccccc3O2)cc1 (stereo not given) | inconclusive: 12.6 µM [inhibitor, partial curve] | 
13 | Cc1nn(C)cc1/C=C/C(=O)c1ccccc1 | inactive | 
14 | CN(C)CC(=O)c1c(N)n(Cc2ccccc2)c(=O)n(C)c1=O | inactive | 
15 | CCC(Sc1nc2cc(OC)c(OC)cc2c(=O)n1Cc1ccc(Cl)cc1)C(=O)NCCOC (stereo not given) | inactive | 
16 | CCC(CC)C(=O)Nc1c(C(=O)N2CCN(c3ccccc3F)CC2)oc2ccccc12 | inactive | 
17 | CCOC(=O)N1CCC(NC(=O)c2cc(C(=O)Nc3cccc(C(F)(F)F)c3)ccc2CO)CC1 | inconclusive: 5.01 µM [inhibitor, partial curve] | 
18 | Cc1ccc(-c2nc3ccc([N+](=O)[O-])cc3[nH]2)cc1 | inconclusive: 11.2 µM [inhibitor, partial curve] | 
19 | Cc1noc(/C=C/N(C)C)c1S(=O)(=O)N1CCCC(C(=O)N2CCCCC2)C1 (stereo not given) | inconclusive: 25.1 µM [inhibitor, single point] | 
20 | CCCOc1ccc(C(=O)N2CCCc3ccccc32)cc1 | inconclusive: 17.8 µM [inhibitor, single point] | 
21 | CCOc1ccccc1NC(=O)CSC1=Nc2ccccc2C2=NC(CC(=O)NC3CCCCC3)C(=O)N12 (stereo not given) | inconclusive: 39.8 µM [inhibitor, single point] | 
22 | COc1ccc(CCNc2cc(C)nc3c(-c4ccccc4)c(C)nn23)cc1OC | inconclusive: 14.1 µM [inhibitor, partial curve] | 

Row | SMILES | Potency | activity, negative = inhibition
23 | CC1=CC(=C(C#N)c2nc3ccccc3s2)C=C(C)N1CC1CCCO1 (stereo not given) | inconclusive: 12.6 µM [inhibitor, partial curve] | 
24 | COc1ccc(S(=O)(=O)N2Cc3ccccc3CC2C(=O)Nc2nccs2)cc1 (stereo not given) | inactive | 
25 | NC(=O)C1CCN(C2=C(NS(=O)(=O)c3ccc(Cl)cc3)C(=O)c3ccccc3C2=O)CC1 | active: 15.8 µM | 
26 | Cc1ccc(CN=c2c([N+](=O)[O-])nn(-c3cccc(C)c3)n2O)cc1 | inconclusive: 14.1 µM [inhibitor, partial curve] | 
27 | CCOC(=O)COc1ccc(S(=O)(=O)c2ccc(OCC(=O)OCC)cc2)cc1 | inactive | 
28 | CCOC(=O)N1CCN(c2nc(-c3ccco3)cc(C(F)(F)F)n2)CC1 | inconclusive: 35.5 µM [inhibitor, single point] | 
29 | O=C(C1CCN(Cc2ccc(Cl)cc2)CC1)N1CCN(C(c2ccccc2)c2ccccc2)CC1 | inconclusive: 11.2 µM [inhibitor, partial curve] | 
30 | COc1ccc(C(=O)C2CCCN(Cc3c(C)[nH]c4ccccc34)C2)c(OC)c1 (stereo not given) | inconclusive: 28.2 µM [inhibitor, partial curve] | 
31 | O=C(COc1ccccc1)NNc1nc2c(F)cc(F)cc2s1 | inactive | 
32 | c1ccc(-c2oc3ncnc(NCCCn4ccnc4)c3c2-c2ccccc2)cc1 | inconclusive: 15.8 µM [inhibitor, partial curve, poor fit] | 
33 | COc1ccc(Br)c2c1-c1nc(NC(=O)c3cccc(C)c3)sc1C2 | inconclusive: 3.16 µM [inhibitor, full curve] | 
34 | Cc1ccc(-c2nnc(SCCOc3ccccc3)o2)cc1 | inconclusive: 8.91 µM [inhibitor, partial curve] | 
35 | CC1CCN(C(=O)CSc2c3c(nc4cc(Cl)ccc24)CCCC3)CC1 | inconclusive: 3.55 µM [inhibitor, full curve] | 
36 | COc1ccccc1N1CCN(c2ccc3cc(S(=O)(=O)N4CCCCC4)ccc3n2)CC1 | inconclusive: 2.82 µM [inhibitor, full curve, poor fit] | 
37 | Cc1ccc(-n2nc(-c3ccc(N)cc3)cc2N)cc1 | inconclusive: 12.6 µM [inhibitor, partial curve] | 
38 | O=C(NC1CCCC1)C(c1ccsc1)N(Cc1ccco1)C(=O)Cc1cccs1 (stereo not given) | inconclusive: 35.5 µM [inhibitor, single point] | 
39 | COc1cc(NC(=S)NC(=O)c2cccs2)ccc1NC(=O)C(C)C | inconclusive: 7.08 µM [inhibitor, partial curve] | 
40 | CCCCc1n[nH]c(=S)n1Cc1ccccc1 | inactive | 
41 | CC(C)OC(=O)c1cc2c(ccn2C)n1CC(=O)N(Cc1ccccc1)c1ccccc1 | inconclusive: 14.1 µM [inhibitor, partial curve, poor fit] | 
42 | CCOC(=O)c1c(C)[nH]c(C2=NNC(=Nc3ccc(OCC)cc3)SC2)c1C | active: 14.1 µM | 
43 | Brc1ccc(-c2ccc(CNCCSc3nnnn3-c3ccccc3)o2)cc1 | inconclusive: 12.6 µM [inhibitor, partial curve] | 
44 | Nc1ccc2nc(CCCCCCc3nc4ccc(N)cc4[nH]3)[nH]c2c1 | inconclusive: 8.91 µM [inhibitor, partial curve] | 

Row | SMILES | Potency | activity, negative = inhibition
45 | O=C1OC(c2ccc(Cl)cc2)=N/C1=C\C=C\c1ccco1 | inconclusive: 12.6 µM [inhibitor, partial curve] | 
46 | CC1(OC(=O)CCc2ccccc2)C(=O)C=C2C=C(c3ccc(C#N)cc3)N(C3CCCCC3)C=C2C1=O (stereo not given) | inconclusive: 25.1 µM [inhibitor, single point] | 
47 | CC1(C)OC(C(O)(c2cccc3c2oc2ccccc23)c2cccc3c2oc2ccccc23)C(C(O)(c2cccc3c2oc2ccccc23)c2cccc3c2oc2ccccc23)O1 (stereo not given) |  | inactive: -1.44% [at 11.5 µM]
48 | Cc1[nH]c2ccccc2c1C(=O)/C=C/c1ccccc1Cl | inconclusive: 1.12 µM [inhibitor, full curve] | 
49 | CCOc1ccc(C(c2c(C)[nH][nH]c2=O)c2c(C)[nH][nH]c2=O)cc1OCC | inactive | 
50 | CCCCc1nc2ccccc2c(NC(=O)CNC(C)(C)C)c1CCC | inactive | 
51 | O=C(CCN1C(=O)C2CC=C(Cl)CC2C1=O)NCc1ccccc1 (stereo not given) | inactive | 
52 | O=C(CSc1nnc(-c2ccc([N+](=O)[O-])cc2)o1)Nc1ccccn1 | inconclusive: 5.01 µM [inhibitor, partial curve] | 
53 | COc1ccc(NC(=S)Nc2ccc(OC(F)F)cc2)cn1 | inactive | 
54 | CCOC(=O)CSc1nc2ccc(NC(=O)CSc3nnnn3Cc3ccccc3)cc2s1 | inconclusive: 17.8 µM [inhibitor, partial curve] | 
55 | COC(=O)c1ccccc1NC1=C/C(=N\S(=O)(=O)c2cccs2)c2ccccc2C1=O | inconclusive: 3.55 µM [inhibitor, partial curve] | 
56 | COC(=O)c1cc2c(N)c(C(=O)c3ccccc3)sc2nc1C(OC)OC | inconclusive: 14.1 µM [inhibitor, partial curve] | 
57 | CC(Nc1cc(N2CCN(S(=O)(=O)N(C)C)CC2)ccc1[N+](=O)[O-])c1ccccc1 (stereo not given) | inconclusive: 11.2 µM [inhibitor, partial curve] | 
58 | COc1ccc(C2C3=C(CCCC3=O)NC3=C2C(=O)c2ccccc23)cc1 (stereo not given) | inconclusive: 14.1 µM [inhibitor, partial curve] | 
59 | O=C(NCc1ccco1)Nc1ccc2nsnc2c1 | inconclusive: 31.6 µM [inhibitor, partial curve] | 
60 | O=C(NC(NC(=S)Nc1ccccc1C(=O)O)C(Cl)(Cl)Cl)c1ccco1 (stereo not given) | inconclusive: 35.5 µM [inhibitor, partial curve, poor fit] | 
61 | O=[N+]([O-])c1ccccc1/C=C/C=N/n1c(-c2ccccc2F)n[nH]c1=S | inconclusive: 14.1 µM [inhibitor, partial curve] | 
62 | Cc1ccccc1NCC(=O)N/N=C\c1ccc2c(c1)OCO2 | inconclusive: 11.2 µM [inhibitor, partial curve] | 
63 | COc1cc(/C=C2\SC(=Nc3ccc(N4CCOCC4)cc3)N(C)C2=O)ccc1OC(C)C(=O)O (stereo not given) | inconclusive: 25.1 µM [inhibitor, partial curve] | 
64 | CCOC(=O)N1CCN(c2ncnc3c2[nH]c2ccc(F)cc23)CC1 | inconclusive: 5.62 µM [inhibitor, partial curve] | 
65 | CCCc1cc(-c2n[nH]c(=S)n2Cc2ccccc2)cs1 | inconclusive: 39.8 µM [inhibitor, single point] | 
